# This is one part of the list.
# B1: GSL-I-B4 (Griffonia simplicifolia) (protein)
# chain: NFWSDVEDSIIFQGDANTTAGTLQLCKTNQYGTPLQWSAGRALYSDPVQLWDNKTESVASFYTEFTFFLKITGNGPADGLAFFLAPPDSDVKDAGEYLGLFNKSTATQPSKNQVVAVEFDTWTNPNFPEPSYRHIGINVNSIVSVATKRWEDSDIFSGKIATARISYDGSAEILTVVLSYPDGSDYILSHSVDMRQNLPESVRVGISASTGNNQFLTVYILSWRFSSNLQSTSVKAAMEPEITRTVV
# Assays:
# Assay in all cases: glycan array binding signal (z-score within array); higher = stronger binding
# Settings in all cases: glycan notation: IUPAC condensed, linker removed
# [1] = biological target: Gal(b1-4)GlcNAc(b1-3)Gal(b1-4)GlcNAc(b1-6)[Gal(b1-3)]GalNAc
# Summary of the method: (§1)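 Glycan array data were curated from 3228 arrays in the Consortium for Functional Glycomics database and kept only where the protein sequence was available. Glycan names were converted to IUPAC-condensed notation, and columns mapping to the same glycan were averaged. The binding signal is a within-array Z-score, averaged across arrays of the same protein sequence at different concentrations or buffers and across linkers. Negative Z-scores can be read as non-binding.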
# [2] = biological target: Gal(b1-4)GlcNAc(b1-3)Gal(b1-4)[Fuc(a1-3)]GlcNAc(b1-3)Gal(b1-4)[Fuc(a1-3)]GlcNAc
# Summary of the method: as §1
# [3] = biological target: Gal(b1-4)GlcNAc(b1-3)GalNAc
# Summary of the method: as §1
# [4] = biological target: Gal(b1-4)GlcNAc(b1-3)[Fuc(a1-3)GlcNAc(b1-6)]Gal(b1-4)Glc
# Summary of the method: as §1
# [5] = biological target: Gal(b1-4)GlcNAc(b1-3)[Gal(b1-4)GlcNAc(b1-6)]Gal(b1-4)GlcNAc
# Summary of the method: as §1
# [6] = biological target: Gal(b1-4)GlcNAc(b1-3)[GlcNAc(b1-6)]Gal(b1-4)GlcNAc
# Summary of the method: as §1
# [7] = biological target: Gal(b1-4)GlcNAc(b1-6)Gal(b1-4)GlcNAc
# Summary of the method: as §1
# [8] = biological target: Gal(b1-4)GlcNAc(b1-6)GalNAc
# Summary of the method: as §1
# [9] = biological target: Gal(b1-4)GlcNAc(b1-6)[Gal(b1-3)]GalNAc
# Summary of the method: as §1
# [10] = biological target: Gal(b1-4)GlcNAc(b1-6)[Gal(b1-4)GlcNAc(b1-3)]GalNAc
# Summary of the method: as §1
# Gal(b1-4)GlcNAc6P = biological target: Gal(b1-4)GlcNAc6P
# Summary of the method: as §1
# Gal(b1-6)Gal = biological target: Gal(b1-6)Gal
# Summary of the method: as §1
# Gal3S(b1-3)GalNAc = biological target: Gal3S(b1-3)GalNAc
# Summary of the method: as §1
# Gal3S(b1-3)GlcNAc = biological target: Gal3S(b1-3)GlcNAc
# Summary of the method: as §1
# [11] = biological target: Gal3S(b1-3)[Fuc(a1-4)]GlcNAc
# Summary of the method: as §1
# Gal3S(b1-4)Glc = biological target: Gal3S(b1-4)Glc
# Summary of the method: as §1
# Gal3S(b1-4)Glc6S = biological target: Gal3S(b1-4)Glc6S
# Summary of the method: as §1
# Gal3S(b1-4)GlcNAc = biological target: Gal3S(b1-4)GlcNAc
# Summary of the method: as §1
# [12] = biological target: Gal3S(b1-4)[Fuc(a1-3)]Glc6S
# Summary of the method: as §1
# [13] = biological target: Gal3S(b1-4)[Fuc(a1-3)]GlcNAc
# Summary of the method: as §1
# [14] = biological target: Gal3S(b1-4)[Fuc(a1-3)]GlcNAc6S
# Summary of the method: as §1
# Gal3S4S(b1-4)GlcNAc = biological target: Gal3S4S(b1-4)GlcNAc
# Summary of the method: as §1
# Gal3S6S(b1-4)GlcNAc = biological target: Gal3S6S(b1-4)GlcNAc
# Summary of the method: as §1
# Gal3S6S(b1-4)GlcNAc6S = biological target: Gal3S6S(b1-4)GlcNAc6S
# Summary of the method: as §1
# Gal4S(b1-4)GlcNAc = biological target: Gal4S(b1-4)GlcNAc
# Summary of the method: as §1
# Gal4S6S(b1-4)GlcNAc = biological target: Gal4S6S(b1-4)GlcNAc
# Summary of the method: as §1
# Gal6P(b1-4)GlcNAc = biological target: Gal6P(b1-4)GlcNAc
# Summary of the method: as §1
# Gal6S(b1-3)GlcNAc = biological target: Gal6S(b1-3)GlcNAc
# Summary of the method: as §1
# Gal6S(b1-3)GlcNAc6S = biological target: Gal6S(b1-3)GlcNAc6S
# Summary of the method: as §1
# Gal6S(b1-4)Glc = biological target: Gal6S(b1-4)Glc
# Summary of the method: as §1
# Gal6S(b1-4)Glc6S = biological target: Gal6S(b1-4)Glc6S
# Summary of the method: as §1
# Gal6S(b1-4)GlcNAc = biological target: Gal6S(b1-4)GlcNAc
# Summary of the method: as §1
# Gal6S(b1-4)GlcNAc6S = biological target: Gal6S(b1-4)GlcNAc6S
# Summary of the method: as §1
# GalNAc(a1-3)Gal = biological target: GalNAc(a1-3)Gal
# Summary of the method: as §1
# GalNAc(a1-3)GalNAc = biological target: GalNAc(a1-3)GalNAc
# Summary of the method: as §1
# [15] = biological target: GalNAc(a1-3)GalNAc(a1-3)Gal(a1-4)Gal(b1-4)GlcNAc
# Summary of the method: as §1
# [16] = biological target: GalNAc(a1-3)GalNAc(b1-3)Gal(a1-4)Gal(b1-4)Glc
# Summary of the method: as §1
binder,measurement,setting,value
B1,glycan array binding signal (z-score),[1],0.05
same,glycan array binding signal (z-score),[2],-0.193
same,glycan array binding signal (z-score),[3],-0.185
same,glycan array binding signal (z-score),[4],-0.193
same,glycan array binding signal (z-score),[5],-0.117
same,glycan array binding signal (z-score),[6],-0.2
same,glycan array binding signal (z-score),[7],-0.182
same,glycan array binding signal (z-score),[8],-0.164
same,glycan array binding signal (z-score),[9],-0.174
same,glycan array binding signal (z-score),[10],-0.187
same,glycan array binding signal (z-score),Gal(b1-4)GlcNAc6P,-0.167
same,glycan array binding signal (z-score),Gal(b1-6)Gal,-0.149
same,glycan array binding signal (z-score),Gal3S(b1-3)GalNAc,-0.237
same,glycan array binding signal (z-score),Gal3S(b1-3)GlcNAc,-0.233
same,glycan array binding signal (z-score),[11],-0.19
same,glycan array binding signal (z-score),Gal3S(b1-4)Glc,-0.151
same,glycan array binding signal (z-score),Gal3S(b1-4)Glc6S,-0.193
same,glycan array binding signal (z-score),Gal3S(b1-4)GlcNAc,-0.174
same,glycan array binding signal (z-score),[12],-0.009
same,glycan array binding signal (z-score),[13],-0.251
same,glycan array binding signal (z-score),[14],-0.167
same,glycan array binding signal (z-score),Gal3S4S(b1-4)GlcNAc,-0.184
same,glycan array binding signal (z-score),Gal3S6S(b1-4)GlcNAc,-0.208
same,glycan array binding signal (z-score),Gal3S6S(b1-4)GlcNAc6S,-0.21
same,glycan array binding signal (z-score),Gal4S(b1-4)GlcNAc,-0.22
same,glycan array binding signal (z-score),Gal4S6S(b1-4)GlcNAc,-0.177
same,glycan array binding signal (z-score),Gal6P(b1-4)GlcNAc,-0.258
same,glycan array binding signal (z-score),Gal6S(b1-3)GlcNAc,-0.267
same,glycan array binding signal (z-score),Gal6S(b1-3)GlcNAc6S,-0.277
same,glycan array binding signal (z-score),Gal6S(b1-4)Glc,-0.195
same,glycan array binding signal (z-score),Gal6S(b1-4)Glc6S,-0.174
same,glycan array binding signal (z-score),Gal6S(b1-4)GlcNAc,-0.19
same,glycan array binding signal (z-score),Gal6S(b1-4)GlcNAc6S,-0.191
same,glycan array binding signal (z-score),GalNAc(a1-3)Gal,-0.18
same,glycan array binding signal (z-score),GalNAc(a1-3)GalNAc,-0.263
same,glycan array binding signal (z-score),[15],-0.17
same,glycan array binding signal (z-score),[16],-0.156

# — the supplement of paper PMC8728848
